The structures appear in SMILES notation. Screen size: about 310,000 compounds; about 2,200 (0.71%) showed an effect of 50% or more. The effect is printed as a negative number. Some of the results follow.

In this assay the target is human ether-à-go-go-related gene (hERG) potassium channel (human, UniProt Q12809). Description: primary screen, population patch clamp on CHO cells stably expressing hERG.
Sequence of human ether-à-go-go-related gene (hERG) potassium channel (Q12809 whole entry, looked up): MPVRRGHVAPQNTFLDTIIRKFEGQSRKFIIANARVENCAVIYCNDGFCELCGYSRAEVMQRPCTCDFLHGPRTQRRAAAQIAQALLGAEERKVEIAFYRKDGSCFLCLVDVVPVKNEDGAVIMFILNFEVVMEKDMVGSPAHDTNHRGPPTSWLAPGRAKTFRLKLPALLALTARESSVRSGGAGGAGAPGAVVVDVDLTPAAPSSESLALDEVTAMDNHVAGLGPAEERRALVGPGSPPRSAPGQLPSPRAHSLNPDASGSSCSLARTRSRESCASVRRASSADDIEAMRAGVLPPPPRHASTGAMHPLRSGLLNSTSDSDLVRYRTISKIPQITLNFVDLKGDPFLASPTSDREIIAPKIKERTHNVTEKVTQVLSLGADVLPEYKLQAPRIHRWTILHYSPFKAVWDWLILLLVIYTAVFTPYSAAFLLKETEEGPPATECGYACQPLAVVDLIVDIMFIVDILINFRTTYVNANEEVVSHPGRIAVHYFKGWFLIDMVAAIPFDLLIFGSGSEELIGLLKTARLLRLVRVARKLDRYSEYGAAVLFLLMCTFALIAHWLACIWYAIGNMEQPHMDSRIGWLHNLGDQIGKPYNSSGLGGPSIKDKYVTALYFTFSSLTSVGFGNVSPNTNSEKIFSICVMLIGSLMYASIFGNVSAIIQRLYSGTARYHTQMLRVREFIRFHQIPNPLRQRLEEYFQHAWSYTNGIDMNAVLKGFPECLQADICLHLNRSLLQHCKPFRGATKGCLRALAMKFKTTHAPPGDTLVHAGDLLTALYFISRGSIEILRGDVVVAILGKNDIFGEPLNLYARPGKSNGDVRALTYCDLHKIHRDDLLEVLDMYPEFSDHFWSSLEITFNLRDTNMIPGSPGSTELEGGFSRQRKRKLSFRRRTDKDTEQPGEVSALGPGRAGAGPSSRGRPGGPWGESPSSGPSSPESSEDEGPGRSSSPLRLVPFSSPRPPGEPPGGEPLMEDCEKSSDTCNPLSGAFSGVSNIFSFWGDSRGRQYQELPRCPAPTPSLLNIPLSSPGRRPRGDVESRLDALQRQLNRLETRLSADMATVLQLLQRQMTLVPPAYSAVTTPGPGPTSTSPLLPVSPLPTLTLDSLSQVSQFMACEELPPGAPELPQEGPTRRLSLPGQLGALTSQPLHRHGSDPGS
On to `Cc1ccc(CCNS(=O)(=O)c2ccc3c(c2)C(C)(C)C(=O)N3C)cc1`, for which the “hERG current change (%, negative = inhibition) at 1uM” value is on record as 10.5%.
The figure for `C=CCNC(=S)NNC(=O)COc1ccc(Cl)cc1Cl` is 0.736%; for `Cc1cc(C)nc(N2CCCC(C(=O)NCCc3cccc(F)c3)C2)n1` (centres unmarked) it is 7.94%.
For `O=C(CSc1ccc2nnc(-c3cccc(F)c3)n2n1)N1CCCc2ccccc21` the value was 8.85%.
As for `COc1cccc(N(C(=O)Cn2nnc(-c3cccs3)n2)C(C(=O)NC2CCCCC2)c2ccncc2)c1` (centres unmarked), the “hERG current change (%, negative = inhibition) at 1uM” value was 7.95%.
For `CC(=O)c1ccc(OCc2cc(C(=O)NCCc3ccc(Cl)cc3)no2)cc1`, the “hERG current change (%, negative = inhibition) at 1uM” value is listed as -0.583%.
The figure for `COc1ccccc1N(CCN1C(=O)c2cccc3cccc(c23)C1=O)C(=O)c1ccncc1` is 13.8%.
The figure for `COc1ccc(-c2nc3c(=O)n(C)c(=O)[nH]c3n2CCc2ccccc2)cc1` is 17.8%.
On to `Cc1c2ccccc2cc(Cc2ccccc2)[n+]1C.[I-]`, for which the “hERG current change (%, negative = inhibition) at 1uM” value was 13.6%.
On to `COc1ccc(-c2nc(CS(=O)CC(=O)NCCCN3CCCC(C)C3)c(C)o2)cc1OC` (centres unmarked), for which the “hERG current change (%, negative = inhibition) at 1uM” value is recorded as 19%.
For `Cc1nn(-c2ccccc2)c(Cl)c1CN(C(=O)CCl)c1cccc2ccccc12`, the “hERG current change (%, negative = inhibition) at 1uM” value was -2.32%.
The figure for `CCCCCCN1C=CC=C/C1=C/C=C(C#N)C#N` is -26.6%; for `Cc1ccc(N(CC(=O)NC2CCCC2)C(=O)CCC(=O)Nc2nccs2)cc1C` it is -0.301%; for `Nc1c(C(=O)N2CCOCC2)sc(=S)n1-c1ccccc1` it is 2.04%.
For `COc1cccc(Nc2ncnc3onc(-c4ccccc4OC)c23)c1` the value was -1.35%.
The figure for `O=C(c1cccc(Cl)c1)C1CCCN(C(=O)c2ccoc2)C1` (centres unmarked) is -17.9%; for `O=C(CN1CCN(S(=O)(=O)c2ccccc2C(F)(F)F)CC1)NCc1cccs1` it is -43.2%; for `COc1ccc(S(=O)(=O)CCC(=O)N2c3ccccc3CC2C)cc1` (centres unmarked) it is -9.87%.
Turning to `O=C(CCOc1ccccc1)Nc1ccnn1C1CCN(Cc2ccc(O)cc2)CC1`, the “hERG current change (%, negative = inhibition) at 1uM” value is -3.76%.
For `CN(C)c1ccc(C(=O)/C=C/c2ccc(Br)cc2)cc1` the value was 6.18%; for `CNC(=O)Cc1csc2ccc(Cl)cc12`, 11.5%; for `O=C(COc1ccc(Br)cc1)NN1C(=O)c2ccccc2C1=O`, 8.41%.
Take `C/C(N)=C(/C#N)C(=O)COC(=O)c1ccccc1Cc1ccccc1`: the “hERG current change (%, negative = inhibition) at 1uM” value is listed as 12.9%.
For `Cc1ccc(OCC(=O)N/N=C/c2cccnc2)cc1C`, the “hERG current change (%, negative = inhibition) at 1uM” value worked out at 7.71%.
As for `O=C(Nc1ccccn1)c1ccc(Cl)c(S(=O)(=O)N2CCCC2)c1`, the “hERG current change (%, negative = inhibition) at 1uM” value was 16.9%.
For `CCOC(=O)/C(C#N)=C/C1=C(N2CCCC2)CC(C)(C)OC1`, the “hERG current change (%, negative = inhibition) at 1uM” value amounted to 5.2%.
The figure for `CCCCCCNC(=O)C(C(=O)OCC)C1CCCCC1` (centres unmarked) is 13.7%.
As to `Cc1cccc(/C=C/c2nc3ccccc3c(=O)[nH]2)c1`, the “hERG current change (%, negative = inhibition) at 1uM” value is recorded as 4.14%.
`O=C(Nc1ccc(NC(=O)C2CC2)nc1)c1ccncc1`: the “hERG current change (%, negative = inhibition) at 1uM” value is on record as 5.32%.
Consider `Cc1ccc(C(=O)COc2ccccc2-c2ccccc2)cc1C`, for which the “hERG current change (%, negative = inhibition) at 1uM” value was determined as 7.86%.
For `CC(=O)c1ccc(OCc2cc(C(=O)N(C)C(C)c3ccon3)no2)cc1` (centres unmarked) the value was 9.27%.
For `Cc1cc(C)n(C(C)CC(=O)N2CCc3ccccc32)n1` (centres unmarked) the value was 4.42%; for `O=C(NC(N1CCOCC1)C(Cl)(Cl)Cl)c1ccco1` (centres unmarked), 14.9%; for `NC(=O)c1sc2nc3c(c(-c4cccs4)c2c1N)CCCCC3`, 2.41%.
The figure for `Cn1nnnc1Sc1ncnc2scc(-c3ccc([N+](=O)[O-])cc3)c12` is 6.24%; for `COc1ccc(OC)c2[nH]c(=O)c(CCNC(=O)C(=O)c3c(C)[nH]c4ccccc34)cc12` it is 12%.
Take `CC(C)CC(=O)N1CCC(N2CCN(c3ccccc3)CC2)CC1`: the “hERG current change (%, negative = inhibition) at 1uM” value came out at 4.37%.
For `CC(=O)Nc1ccc(Nc2ccc(N3C(=O)CCCC3=O)cc2[N+](=O)[O-])cc1` the value was 5.23%; for `CCOC(=O)c1c(C)[nH]c(C(=O)CN2C(=O)NC(C)(CC(C)C)C2=O)c1C` (centres unmarked), 16.3%; for `CCN1CCN(S(=O)(=O)c2ccc(Cl)nc2)CC1`, 6.86%.
For `COc1cc(/C=N/NC(=O)CCc2ccccc2)ccc1O` the value was 2.47%.
For `CC(=O)c1ccc(OCC(=O)OC(C)C(=O)NC2CCCCC2C)cc1` (centres unmarked) the value was 14.2%; for `O=S(=O)(c1ccc(Br)cc1)c1nc(-c2ccccc2)oc1N1CCOCC1`, 4.55%; for `CCCC(C)NS(=O)(=O)c1ccc(OC)c(C)c1` (centres unmarked), 3.11%.
